For 32 sequences, binding signal results are on record in paper PMC12820563, “FoxP3 forms a head-to-head dimer in vivo and stabilizes its multimerization on adjacent microsatellites”.

The list shows a part of the results.

This test has as its target T1, MBP-FoxP1dN (Mus musculus, UniProt P58462 326-579).
T1 sequence: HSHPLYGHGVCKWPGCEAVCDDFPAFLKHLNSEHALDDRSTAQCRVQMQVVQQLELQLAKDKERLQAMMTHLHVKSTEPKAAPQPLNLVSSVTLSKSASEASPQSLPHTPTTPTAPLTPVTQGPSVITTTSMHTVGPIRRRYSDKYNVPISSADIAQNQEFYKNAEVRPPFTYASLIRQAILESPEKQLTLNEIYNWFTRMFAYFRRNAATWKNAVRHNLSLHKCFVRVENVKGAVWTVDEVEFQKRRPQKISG
The test is described as follows: PD-seq (MBP pull-down with sequencing); 20 mM Tris-HCl pH 7.5, 100 mM NaCl, 1.5 mM MgCl2, 0.4 uM protein, 0.1 uM dsDNA library, 30 min, room temperature, amylose pull-down; high values mean tight binding. The following applies: protein: recombinant; tags: His6-MBP; chain copies: 2; dsDNA, one strand shown. The method in brief:
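Binding is given as reads-per-million enrichment, pull-down over input, with replicates pooled. The bait was an N-terminus-lacking mouse FoxP3 or FoxP1 fragment with a His6-MBP tag, expressed in E. coli and used at 0.4 µM with 0.1 µM Klenow-filled degenerate double-stranded DNA library for 30 min at room temperature in Tris pH 7.5 buffer with NaCl and MgCl2. Amylose resin pull-down with three washes was followed by proteinase K release, PCR barcoding and Illumina sequencing.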
Consider “GATGATTGTTCTCCCAGCTGATGAATTTTGTCACTCGAGTAAACAAATTTTCCTAATCTTTCTGTTCAAGCGCCATCTAC”, for which the binding signal was 1.13 RPM ratio (pull-down/input). As for “GATGATTGTTCTCCCAGCTGATGAATTCAGTAAATCGAGTAAACAAATTTTCCTAATCTTTCTGTTCAAGCGCCATCTAC”, the figure is 1.26 RPM ratio (pull-down/input); as for “GATGATTGTTCTCCCAGCTGATGAATTACAGGGATCGAGTAAACAAATTTTCCTAATCTTTCTGTTCAAGCGCCATCTAC”, 0.913 RPM ratio (pull-down/input).

“GATGATTGTTCTCCCAGCTGATGAATTTTTAATCTCGAGTAAACAAATTTTCCTAATCTTTCTGTTCAAGCGCCATCTAC”: the binding signal is 0.864 RPM ratio (pull-down/input). Under “GATGATTGTTCTCCCAGCTGATGAATTGACCTTTTCGAGTAAACAAATTTTCCTAATCTTTCTGTTCAAGCGCCATCTAC” stands 0.951 RPM ratio (pull-down/input).

On to “GATGATTGTTCTCCCAGCTGATGAATTAGATCATTCGAGTAAACAAATTTTCCTAATCTTTCTGTTCAAGCGCCATCTAC”, for which the binding signal was 0.995 RPM ratio (pull-down/input). With “GATGATTGTTCTCCCAGCTGATGAATTGGTTGTATCGAGTAAACAAATTTTCCTAATCTTTCTGTTCAAGCGCCATCTAC”, the binding signal is 1.3 RPM ratio (pull-down/input). Under “GATGATTGTTCTCCCAGCTGATGAATTAGTAGCTTCGAGTAAACAAATTTTCCTAATCTTTCTGTTCAAGCGCCATCTAC” stands 0.979 RPM ratio (pull-down/input); under “GATGATTGTTCTCCCAGCTGATGAATTGCACCAATCGAGTAAACAAATTTTCCTAATCTTTCTGTTCAAGCGCCATCTAC”, 1.27 RPM ratio (pull-down/input); under “GATGATTGTTCTCCCAGCTGATGAATTGTGTTTGTCGAGTAAACAAATTTTCCTAATCTTTCTGTTCAAGCGCCATCTAC”, 2.8 RPM ratio (pull-down/input). Under “GATGATTGTTCTCCCAGCTGATGAATTCGATACTTCGAGTAAACAAATTTTCCTAATCTTTCTGTTCAAGCGCCATCTAC” stands 0.906 RPM ratio (pull-down/input); under “GATGATTGTTCTCCCAGCTGATGAATTACATCTATCGAGTAAACAAATTTTCCTAATCTTTCTGTTCAAGCGCCATCTAC”, 1.2 RPM ratio (pull-down/input); under “GATGATTGTTCTCCCAGCTGATGAATTACCGTTTTCGAGTAAACAAATTTTCCTAATCTTTCTGTTCAAGCGCCATCTAC”, 1.15 RPM ratio (pull-down/input).

Consider “GATGATTGTTCTCCCAGCTGATGAATTACGTTATTCGAGTAAACAAATTTTCCTAATCTTTCTGTTCAAGCGCCATCTAC”, for which the binding signal is 1.21 RPM ratio (pull-down/input). Under “GATGATTGTTCTCCCAGCTGATGAATTGTAATTCTCGAGTAAACAAATTTTCCTAATCTTTCTGTTCAAGCGCCATCTAC” stands 1.05 RPM ratio (pull-down/input).

Turning to “GATGATTGTTCTCCCAGCTGATGAATTTCACCTATCGAGTAAACAAATTTTCCTAATCTTTCTGTTCAAGCGCCATCTAC”, the binding signal is 0.832 RPM ratio (pull-down/input). On to “GATGATTGTTCTCCCAGCTGATGAATTTAAGAGATCGAGTAAACAAATTTTCCTAATCTTTCTGTTCAAGCGCCATCTAC”, for which the binding signal is 0.932 RPM ratio (pull-down/input). As for “GATGATTGTTCTCCCAGCTGATGAATTATAACAGTCGAGTAAACAAATTTTCCTAATCTTTCTGTTCAAGCGCCATCTAC”, the figure is 1.2 RPM ratio (pull-down/input). As for “GATGATTGTTCTCCCAGCTGATGAATTTTCAGAATCGAGTAAACAAATTTTCCTAATCTTTCTGTTCAAGCGCCATCTAC”, the figure is 0.968 RPM ratio (pull-down/input); as for “GATGATTGTTCTCCCAGCTGATGAATTCCTGAGTTCGAGTAAACAAATTTTCCTAATCTTTCTGTTCAAGCGCCATCTAC”, 0.814 RPM ratio (pull-down/input). For “GATGATTGTTCTCCCAGCTGATGAATTGATCTAGTCGAGTAAACAAATTTTCCTAATCTTTCTGTTCAAGCGCCATCTAC”, the binding signal is 0.885 RPM ratio (pull-down/input).

In the case of “GATGATTGTTCTCCCAGCTGATGAATTGTGAGAGTCGAGTAAACAAATTTTCCTAATCTTTCTGTTCAAGCGCCATCTAC”, the binding signal is 0.956 RPM ratio (pull-down/input).

“GATGATTGTTCTCCCAGCTGATGAATTTCCGCATTCGAGTAAACAAATTTTCCTAATCTTTCTGTTCAAGCGCCATCTAC”: the binding signal is 1.19 RPM ratio (pull-down/input). Consider “GATGATTGTTCTCCCAGCTGATGAATTCGGCAAGTCGAGTAAACAAATTTTCCTAATCTTTCTGTTCAAGCGCCATCTAC”, for which the binding signal was 0.824 RPM ratio (pull-down/input). “GATGATTGTTCTCCCAGCTGATGAATTTAGCCAATCGAGTAAACAAATTTTCCTAATCTTTCTGTTCAAGCGCCATCTAC”: the binding signal is 1.09 RPM ratio (pull-down/input). In the case of “GATGATTGTTCTCCCAGCTGATGAATTACAGACATCGAGTAAACAAATTTTCCTAATCTTTCTGTTCAAGCGCCATCTAC”, the binding signal was 1.06 RPM ratio (pull-down/input). As for “GATGATTGTTCTCCCAGCTGATGAATTACGTACCTCGAGTAAACAAATTTTCCTAATCTTTCTGTTCAAGCGCCATCTAC”, the figure is 0.957 RPM ratio (pull-down/input); as for “GATGATTGTTCTCCCAGCTGATGAATTCGATGGGTCGAGTAAACAAATTTTCCTAATCTTTCTGTTCAAGCGCCATCTAC”, 0.732 RPM ratio (pull-down/input). Under “GATGATTGTTCTCCCAGCTGATGAATTTTCTACTTCGAGTAAACAAATTTTCCTAATCTTTCTGTTCAAGCGCCATCTAC” stands 1.01 RPM ratio (pull-down/input); under “GATGATTGTTCTCCCAGCTGATGAATTGTTAGATTCGAGTAAACAAATTTTCCTAATCTTTCTGTTCAAGCGCCATCTAC”, 1.18 RPM ratio (pull-down/input).

With “GATGATTGTTCTCCCAGCTGATGAATTGGGAAAGTCGAGTAAACAAATTTTCCTAATCTTTCTGTTCAAGCGCCATCTAC”, the binding signal was 0.816 RPM ratio (pull-down/input).

Turning to “GATGATTGTTCTCCCAGCTGATGAATTGATCAAATCGAGTAAACAAATTTTCCTAATCTTTCTGTTCAAGCGCCATCTAC”, the binding signal is 1.15 RPM ratio (pull-down/input).
